In the supplement of paper PMC5919970:
Structures can show the parent of a compound that is named as a salt. Whole data set: some 2,000 compounds, median “fractional viability relative to vehicle” near 0.91, cut for the lowest 2% near 0.045. This is one part of the list.

Tested on: TYKNU
Experiment: fractional viability relative to vehicle; TYKNU is a high-grade serous ovarian cancer line; higher = less growth inhibition
Settings: 72 h
Summary of the method: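 Drug treatment lasted 72 h, with cells grown at 37 °C in 5% CO2 in RPMI 1640 supplemented with 10% FBS. Beforehand, TYKNU control cells or their lentiCRISPRv2 knockout derivatives had been seeded at 500 cells per well into drug-stamped 384-well plates carrying a ~2100-compound library at 2 or 10 μM, in duplicate. Viability came from Cell Titer Glo luminescence, with averaged duplicate treatment wells normalised to duplicate control wells in the same plate position.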

[1] = 2uM, genotype: DNM1L knockout (sgDNM1L #1)
[2] = 2uM, genotype: sgCTRLA1 (non-targeting control)
[3] = 10uM, genotype: DNM1L knockout (sgDNM1L #1)
[4] = 10uM, genotype: sgCTRLA1 (non-targeting control)

SMILES | fractional viability [1] | fractional viability [2] | fractional viability [3] | fractional viability [4]
Cn1ccnc1S [Methimazole] | 1.08 | 1.07 | 0.971 | 1.04
N#CC(c1ccc(Cl)cc1)c1c(Cl)cc(-n2ncc(=O)[nH]c2=O)cc1Cl (centres undefined) [Diclazuril] | 0.844 | 1.1 | 0.7 | 0.879
COc1cc(OC)c(C(=O)CCCN2CCCC2)c(OC)c1 [Buflomedil HCl] | 0.912 | 1.1 | 0.825 | 1.03
COc1ccc(CCNCc2ccc(OCc3ccc(Cl)nc3)c(OC)c2)cc1OC | 0.725 | 0.973 | 0.79 | 0.807
CCOc1ccc(Cc2cc([C@@H]3O[C@H](SC)[C@@H](O)[C@H](O)[C@H]3O)ccc2Cl)cc1 [Sotagliflozin (LX4211)] | 0.825 | 1.02 | 0.592 | 0.694
CC(C)(C)C(=O)OCOP(=O)(COCCn1cnc2c(N)ncnc21)OCOC(=O)C(C)(C)C [Adefovir Dipivoxil] | 0.499 | 0.674 | 0.356 | 0.34
COc1ccccc1N1CCN(CC(O)COc2cccc3ccccc23)CC1 (centres undefined) [Naftopidil] | 0.876 | 0.972 | 0.486 | 0.735
COc1ccccc1N1CCN(CC(O)COc2cccc3ccccc23)CC1 (centres undefined) [Naftopidil DiHCl] | 0.903 | 0.919 | 0.527 | 0.678
CN1CCC(=C2c3ccccc3CC(=O)c3sccc32)CC1 [Ketotifen Fumarate] | 0.927 | 1.03 | 0.968 | 0.936
Nc1nc(N)c2nc(-c3cccc(O)c3)cnc2n1 | 1.09 | 0.963 | 0.394 | 0.428
O=C(O)CC[C@H]1CC[C@@](c2cc(F)ccc2F)(S(=O)(=O)c2ccc(Cl)cc2)CC1 | 0.955 | 1.03 | 0.722 | 1.02
C/C=C1\NC(=O)[C@H]2CSSCC/C=C/[C@H](CC(=O)N[C@H](C(C)C)C(=O)N2)OC(=O)[C@H](C(C)C)NC1=O [Romidepsin (FK228, Depsipeptide)] | 0.0349 | 0.0303 | 0.0444 | 0.0308
C[C@@H](Oc1cc(-n2cnc3ccc(CN4CCN(C)CC4)cc32)sc1C(N)=O)c1ccccc1C(F)(F)F | 0.325 | 0.284 | 0.2 | 0.153
CNCC[C@H](Oc1cccc2ccccc12)c1cccs1 [Duloxetine HCl] | 0.947 | 1.03 | 0.891 | 1.11
CC1(COc2ccc3c(c2)ncn3-c2ccc3cccc(N4CCC(N)CC4)c3n2)COC1 | 0.685 | 0.855 | 0.0673 | 0.0683
COc1ccccc1-c1cc(Nc2cccc(CS(N)(=O)=O)c2)ncn1 | 0.8 | 1.08 | 0.165 | 0.191

SMILES | fractional viability [1] | fractional viability [2] | fractional viability [3] | fractional viability [4]
COc1ccc([C@H]2CNC(=O)C2)cc1OC1CCCC1 [S- (+)-Rolipram] | 0.962 | 1.01 | 0.904 | 1.06
COc1cc(Cc2cnc(N)nc2N)cc(OC)c1OC [Trimethoprim] | 0.906 | 1.22 | 0.693 | 1.09
COc1cc2c(cc1OC)CN(CCc1ccc(NC(=O)c3cc(OC)c(OC)cc3NC(=O)c3cnc4ccccc4c3)cc1)CC2 [Tariquidar] | 0.769 | 1.05 | 0.158 | 0.555
CC(=O)c1cc([N+](=O)[O-])c(Sc2cccc(Cl)c2Cl)s1 | 0.854 | 1.12 | 0.0691 | 0.0644
Cn1c(=O)c2[nH]cnc2n(C)c1=O [Aminophylline] | 0.97 | 1.07 | 0.913 | 1.05
CS(=O)(=O)c1ccc(C2=C(c3ccccc3)C(=O)OC2)cc1 [Rofecoxib] | 1.17 | 0.987 | 0.739 | 0.877
CC(C)[C@H](CO)Nc1nc(Nc2cccc(Cl)c2)c2ncn(C(C)C)c2n1 [Purvalanol A] | 0.743 | 0.938 | 0.254 | 0.324
Cc1[nH]c(=O)c(C#N)cc1-c1ccncc1 [Milrinone] | 0.934 | 1.08 | 0.802 | 1.02
Cc1ccnc2c1NC(=O)c1cccnc1N2C1CC1 [Nevirapine] | 1.01 | 1.04 | 0.654 | 1.06
CN(C)CCC=C1c2ccccc2CCc2ccccc21 [Amitriptyline HCl] | 1.06 | 1.21 | 0.651 | 0.995
O=C(Nc1ccccc1)c1ccccc1O [Salicylanilide] | 0.702 | 1.11 | 0.71 | 1.09
FC(F)(F)c1ccc(CNc2ccc(Cc3c[nH]c4ncc(Cl)cc34)cn2)cn1 [Pexidartinib (PLX3397)] | 0.815 | 1 | 0.88 | 0.756
CCc1nc(-c2cccc(C)c2)c(-c2ccnc(NC(=O)c3ccccc3)c2)s1 | 1.22 | 1.17 | 0.651 | 1.08
Cc1cccc(C)c1NC(=O)C1CCCCN1C (centres undefined) [Mepivacaine HCl] | 1.02 | 1.28 | 0.832 | 1.08
COc1cc(/C=C/C(=O)N2CCC=CC2=O)cc(OC)c1OC [Piperlongumine] | 0.302 | 0.319 | 0.0446 | 0.0292
